These are yes or no findings as the source states them, for the method shown. Binding seen in cells or lysates may run through a third protein. Some binding calls cover weakened binding; strength is not graded here. Sequences can lack the tags named with a protein.
Experiments:
[1] = target: T1, V5-CDK12 (Drosophila cyclin-dependent kinase 12 with N-terminal V5 tag) (Drosophila melanogaster) (UniProt Q9VP22); experiment: co-IP; Lysates of S2 cells co-expressing V5-CDK12 and B2-GFP pretreated with RNase A before co-IP with anti-V5; western blot
T1 sequence: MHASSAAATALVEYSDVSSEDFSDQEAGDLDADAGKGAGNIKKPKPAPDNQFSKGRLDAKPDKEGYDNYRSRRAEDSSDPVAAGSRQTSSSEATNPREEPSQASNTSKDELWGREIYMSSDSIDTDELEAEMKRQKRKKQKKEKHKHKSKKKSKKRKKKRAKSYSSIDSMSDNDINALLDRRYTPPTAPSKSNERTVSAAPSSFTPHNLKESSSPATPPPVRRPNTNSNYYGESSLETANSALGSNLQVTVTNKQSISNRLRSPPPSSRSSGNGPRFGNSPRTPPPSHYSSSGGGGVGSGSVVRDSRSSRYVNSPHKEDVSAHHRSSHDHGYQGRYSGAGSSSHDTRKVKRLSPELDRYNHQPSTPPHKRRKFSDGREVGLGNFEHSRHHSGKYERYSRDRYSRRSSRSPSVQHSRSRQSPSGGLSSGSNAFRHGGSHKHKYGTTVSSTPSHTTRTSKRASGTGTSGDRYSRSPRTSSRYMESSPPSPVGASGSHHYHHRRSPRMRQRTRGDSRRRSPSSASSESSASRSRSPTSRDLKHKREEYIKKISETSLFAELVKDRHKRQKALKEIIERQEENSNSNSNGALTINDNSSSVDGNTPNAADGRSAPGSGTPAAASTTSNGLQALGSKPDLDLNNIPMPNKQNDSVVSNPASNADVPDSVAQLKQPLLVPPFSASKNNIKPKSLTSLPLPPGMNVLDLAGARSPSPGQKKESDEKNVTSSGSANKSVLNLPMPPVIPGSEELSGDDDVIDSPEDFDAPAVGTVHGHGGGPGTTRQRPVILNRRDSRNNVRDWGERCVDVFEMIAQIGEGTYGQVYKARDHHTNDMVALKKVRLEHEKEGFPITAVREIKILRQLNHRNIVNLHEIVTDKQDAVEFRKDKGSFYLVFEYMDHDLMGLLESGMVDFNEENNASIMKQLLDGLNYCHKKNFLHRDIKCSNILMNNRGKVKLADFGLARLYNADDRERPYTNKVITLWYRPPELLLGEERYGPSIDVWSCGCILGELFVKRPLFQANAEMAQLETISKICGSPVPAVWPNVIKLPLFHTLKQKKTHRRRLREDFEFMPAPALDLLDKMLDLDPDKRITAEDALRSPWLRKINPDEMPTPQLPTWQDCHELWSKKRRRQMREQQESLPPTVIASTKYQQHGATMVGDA

[2] = target: T1, V5-CDK12 (Drosophila cyclin-dependent kinase 12 with N-terminal V5 tag) (Drosophila melanogaster); experiment: co-IP; S2 cells co-transfected with pMT-V5-CDK12 and B2-GFP, GFP or GFP-tagged B2 mutants; RIPA buffer (50 mM Tris-HCl pH 7.4, 150 mM NaCl, 5 mM MgCl2, 1 mM EDTA, 10% glycerol, 1% NP-40); anti-V5 or anti-GFP on protein A agarose, 4°C overnight; western blot

## B2-GFP (FHV B2 with GFP fused to its C-terminus) (from UniProt P68831 1-106)
[1]
  binding: binds
[2]
  binding: binds

## B2-mutant1-GFP (B2 with mutations in key dimerization sites K4A, E20A, D29A) (from UniProt P68831 1-106)
[2]
  binding: no binding

## B2-mutant3-GFP (B2 lacking the C-terminal 17 amino acids, ΔC17) (from UniProt P68831 1-89) (domain or fragment)
[2]
  binding: binds
